Assay results published in PubChem BioAssay AID463173 (ICCB-Longwood Screening Facility, Harvard Medical School, 2010).
Among all 52,000 compounds or so, about 1,700 (3.3%) were called active. Cut-off read from the data, not from the text of the source: active = survival mostly below about 52% (no sharp cut-off); inactive = mostly above about 56%. Some of the results follow.

test system: Wild type; assay: S. aureus survival, RN4220 and DeltatarO strains – OD600, teichoic acid synthesis inhibitors, primary screen (AID 463173); details: S. aureus RN4220 wild type/DeltatarO growth, OD600, 18 h, active compounds read low, screened at 18.75 µg/mL (by protocol)

SMILES | survival
Cc1ccc(NC(=O)C2CCCN(S(=O)(=O)c3cccs3)C2)c(C)c1 (stereo unspecified) | inactive: 71%
CCCN1C(C(=O)c2ccccc2)=C(OC(=O)COc2ccc(C)cc2)c2ccccc2S1(=O)=O | inactive: 25%
COC(=O)CN1C(C(=O)c2ccccc2)=C(OC(=O)c2ccccc2)c2ccccc2S1(=O)=O | inactive: 87%
Cc1ccc(NC(=O)CCCn2nc(C)c3c(C)n(-c4ccccc4)nc3c2=O)c(Cl)c1 | inactive: 113%
CCOC(=O)c1cc(NC(=O)c2ccc(F)cc2)c(=O)n2c1oc1ccc(Cl)cc12 | inactive: 133%
CCCSCCCNC(=O)Cn1c(-c2cccs2)cc2ccccc21 | inactive: 73%
Cc1cc(O)c(CN2CCN(c3ccccc3)CC2)c2oc(=O)cc(C)c12 | inactive: 82%
O=C(Nc1c2c(nn1-c1ccc(Cl)cc1)CS(=O)(=O)C2)c1ccc(Br)cc1 | inactive: 64%
COc1cccc(NC(=O)N(Cc2nc3ccccc3c(=O)[nH]2)C2CCCCC2)c1 | inactive: 122%
Cc1nc(-c2ccc(S(=O)(=O)NCc3ccccc3Cl)cc2)co1 | inactive: 80%
CCN1CCN(C(=O)Cn2ncc3c4ccccc4n(Cc4c(C)cc(C)cc4C)c3c2=O)CC1 | inactive: 126%
CCCCN(CCCC)C(=O)c1c[nH]c2ccc(S(=O)(=O)Nc3cccc(Cl)c3C)cc2c1=O | inactive: 70%
CC1=C(C(N)=O)C(c2ccc(C)cc2)n2nc(SCc3ccccc3)nc2N1 (stereo unspecified) | inactive: 128%
COc1ccc(S(=O)(=O)Nc2cccc(-c3ccc(N4CCCC4)nn3)c2)cc1F | inactive: 100%
Cc1ccccc1NC(=O)CSc1ccc(-c2ccccn2)nn1 | inactive: 111%
COc1ccccc1-c1nn(CCC(=O)Nc2ccc(C)cc2)c2nc(C)cc(C)c12 | inactive: 89%
CCN1CCN(CCCNC(=O)Cn2nc(C)n3c(cc4c(OC)cccc43)c2=O)CC1 | inactive: 94%
CCCCCn1c(CCCNC(=O)c2ccccc2OC)nc2ccccc21 | inactive: 68%
O=C(NCc1ccccc1Cl)C1=Cc2cc(Br)ccc2OC1 | inactive: 121%

SMILES | survival
COC(=O)c1cc2c(=O)n3ccccc3nc2n(CCN2CCOCC2)c1=N | inactive: 97%
Cc1cccc2c(=O)c(N)c[nH]c12 | inactive: 111%
O=S(=O)(NCCCO)c1ccc2c(c1)Cc1cc(S(=O)(=O)NCCCO)ccc1-2 | inactive: 107%
CC(C)Oc1ccc(CNC(=O)c2cnc3sc(N4CCCC4)nn3c2=O)cc1 | inactive: 67%
CCOC(=O)NNC(=O)C1CCC(C)CC1 (stereo unspecified) | inactive: 64%
Cc1oc2c(c1C(=O)NCc1ccccc1F)C1=NCCN1C=N2 | inactive: 80%
O=C(NCC(c1ccc2c(c1)OCO2)N1CCN(c2ccccc2)CC1)C(=O)Nc1ccccc1F (stereo unspecified) | inactive: 85%
CC(=O)Nc1cccc(-c2nnc(SCC(=O)c3cc([N+](=O)[O-])ccc3Cl)o2)c1 | inactive: 85%
CCN(CC)C(=O)Cn1ncc2c([nH]c3ccccc32)c1=O | inactive: 128%
COc1cccc(N2CCN(C(=O)c3ccc4nc(N5CCC(C)CC5)sc4c3)CC2)c1 | inactive: 42%
CCOC(=O)c1cnc2ccc(C(=O)OC)cc2c1Nc1ccc(OCc2ccccc2Cl)cc1 | inactive: 129%
CCN1C(=O)C2C(c3ccc(F)cc3)NC(CCSC)(C(=O)OC)C2C1=O (stereo unspecified) | inactive: 96%
CCOc1ccc(NC(=O)CC2C(=O)N(c3ccc(OC)cc3)C(=O)N2CCC2=CCCCC2)cc1 (stereo unspecified) | inactive: 69%
COc1ccc(C)cc1NC(=O)N(C(C)C)C1CCN(C(C)=O)CC1 | inactive: 85%
Cc1ccc(N2CCN(c3nc4ccc(C(=O)c5ccccc5)cc4n4cnnc34)CC2)c(C)c1 | inactive: 72%
COc1ccccc1Nc1nn2c(=O)c3ccc(C(=O)NCCc4ccccc4)cc3nc2s1 | inactive: 68%
Cc1ccc(-c2nnc3ccccc3c2C(=O)Nc2ccc(F)cc2)cc1 | inactive: 143%
COc1ccc(C(C)=O)cc1CSc1nc(Nc2ccc(F)c(F)c2)c2ccccc2n1 | inactive: 19%
O=C(O)c1cc(-c2ccccc2)nn1Cc1ccccc1 | inactive: 68%

SMILES | survival
Cc1ccn2c(Nc3ccccc3)c(-c3c[nH]c4ccccc34)nc2c1 | inactive: 68%
Cc1cc(C)cc(NC(=O)C(=O)NCCc2sc(-c3cccc(F)c3)nc2C)c1 | inactive: 99%
O=C(CSc1nc2ccccc2c(=O)n1C1CCCCC1)NCc1ccco1 | inactive: 106%
CC(=O)Nc1ccc(NC(=O)c2ccc3c(c2)CCN3S(=O)(=O)c2ccc(C)cc2)cc1 | inactive: 90%
Cc1ccc(-c2nnc(Nc3ccc(OCC(N)=O)cc3)c3ccccc23)cc1S(=O)(=O)NCC1CCCO1 (stereo unspecified) | inactive: 166%
O=C(CCn1cnc2onc(-c3ccc(F)cc3)c2c1=O)Nc1cccc(C(F)(F)F)c1 | inactive: 80%
Cc1noc(Cn2c(=O)c3ccccc3n(CC(=O)Nc3cc(Cl)ccc3C)c2=O)n1 | inactive: 70%
CCOC(=O)c1[nH]c2ccccc2c1NC(=O)c1ccc(C)c(C)c1 | inactive: 84%
O=C(CSc1n[nH]c(-c2ccccc2)n1)N1CCN(c2ccc(F)cc2)CC1 | inactive: 65%
CCC(C(=O)NCCc1ccc(OC)c(OC)c1OC)n1nc(C)c2sc3ccccc3c2c1=O (stereo unspecified) | inactive: 106%
Cc1ccc(CNC(=O)C2CCN(C(=O)N3CC(C)Oc4ccc(Cl)cc43)CC2)cc1 (stereo unspecified) | inactive: 96%
Cc1ccc(-n2c(=O)c3c(cnn3C)n(CC(=O)Nc3cccc(Cl)c3)c2=O)cc1 | inactive: 64%
CCOc1ccccc1NC(=O)CN1C(=O)CC(c2ccc(C)c(C)c2)=Nc2ccccc21 | inactive: 91%
CCOc1ccc(NC(=O)c2ccc3c(=O)n4c(nc3c2)CCCCC4)cc1 | inactive: 152%
Cc1cc(C)cc(NC(=O)C(C)N2Cc3ccccc3C2=O)c1 (stereo unspecified) | inactive: 63%
Cc1ccc(C)c(N2CCN(CCCNC(=O)c3cnn(-c4cccc(Cl)c4)c3C3CCN(C(=O)OC(C)(C)C)CC3)CC2)c1 | inactive: 64%
CCc1ccccc1NC(=O)CCn1cccn1 | inactive: 131%
Cc1ccc(CSc2nc3ccccc3c3nc(CCn4c(C)nc5ccccc54)nn23)cc1 | inactive: 73%
